Test results taken from patent US11999716B2, “WDR5 inhibitors and modulators” (priority 2018, dated 2024).

The compounds below were run against WDR5 (Homo sapiens, UniProt P61964) (assay: biochemical). Conditions: Ki for Inhibition of WDR5 by TR-FRET assay, WDR5-His tag (Δ23, residues 24-334) 2 nM; 10mer-Thr-FAM probe 150 nM; Tb-anti-HIS 1 nM; 60 min, room temperature.
Format: binding

Row | SMILES | Ki [nM]
1 | COc1ccnc(CN2CCc3c(cc(Cc4ncc[nH]4)cc3-c3cn(C)nc3C(F)(F)F)C2=O)c1 [Example 132, 7-((1H-Imidazol-2-yl)methyl)-2-((4-methoxypyridin-2-yl)methyl)-5-(1-methyl-3-(trifluoromethyl)-1H-pyrazol-4-yl)-3,4-dihydroisoquinolin-1(2H)-one] | < 0.05

Same assay, conditions: WDR5-His tag (Δ23, residues 24-334) 2 nM; 10mer-Thr-FAM probe 150 nM; Tb-anti-HIS 1 nM; 60 min, room temperature; read-out: Ki for Inhibition of WDR5 by TR-FRET assay

Row | SMILES | Ki [nM]
2 | Cc1ccnc(CN2CCc3c(cc(CN4CCCC4=N)cc3-c3cn(C)nc3C(F)(F)F)C2=O)c1 [Example 112, 7-((2-Iminopyrrolidin-1-yl)methyl)-5-(1-methyl-3-(trifluoromethyl)-1H-pyrazol-4-yl)-2-((4-methylpyridin-2-yl)methyl)-3,4-dihydroisoquinolin-1(2H)-one] | < 0.02
3 | COc1ccnc(CN2CCc3c(cc(Cn4ccnc4C)cc3-c3cn(C)nc3C(F)(F)F)C2=O)c1 [Example 8, 2-((4-Methoxypyridin-2-yl)methyl)-7-((2-methyl-1H-imidazol-1-yl)methyl)-5-(1-methyl-3-(trifluoromethyl)-1H-pyrazol-4-yl)-3,4-dihydroisoquinolin-1(2H)-one] | < 0.05
4 | CCn1cc(-c2cc(Cn3ccnc3C)cc3c2CCN([C@@H](C)c2cc(OC)ccn2)C3=O)c(C(F)(F)F)n1 [Example 156, (S)-5-(1-Ethyl-3-(trifluoromethyl)-1H-pyrazol-4-yl)-2-(1-(4-methoxypyridin-2-yl)ethyl)-7-((2-methyl-1H-imidazol-1-yl)methyl)-3,4-dihydroisoquinolin-1(2H)-one] | < 0.05
5 | COc1ccnc(CN2CCc3c(cc(Cn4ccnc4C4CC4)cc3-c3cn(C)nc3C(F)(F)F)C2=O)c1 [Example 11, 7-((2-Cyclopropyl-1H-imidazol-1-yl)methyl)-2-((4-methoxypyridin-2-yl)methyl)-5-(1-methyl-3-(trifluoromethyl)-1H-pyrazol-4-yl)-3,4-dihydroisoquinolin-1(2H)-one] | < 0.05
6 | COc1ccnc([C@H](C)N2CCc3c(cc(Cn4ccnc4C)cc3-c3ccncc3C(F)(F)F)C2=O)c1 [Example 248, (S)-2-(1-(4-Methoxypyridin-2-yl)ethyl)-7-((2-methyl-1H-imidazol-1-yl)methyl)-5-(3-(trifluoromethyl)pyridin-4-yl)-3,4-dihydroisoquinolin-1(2H)-one] | < 0.05
7 | Cc1ccnc([C@H](C2CC2)N2CCc3c(cc(Cn4ccnc4C)cc3-c3ccc(F)cc3C)C2=O)c1 [Example 12, (S)-2-(Cyclopropyl(4-methylpyridin-2-yl)methyl)-5-(4-fluoro-2-methylphenyl)-7-((2-methyl-1H-imidazol-1-yl)methyl)-3,4-dihydroisoquinolin-1(2H)-one] | < 0.05
8 | COc1ccnc(CN2CCc3c(cc(CN4CCCC4=N)cc3-c3ccc(F)cc3C)C2=O)c1 [Example 114, 5-(4-Fluoro-2-methylphenyl)-7-((2-iminopyrrolidin-1-yl)methyl)-2-((4-methoxypyridin-2-yl)methyl)-3,4-dihydroisoquinolin-1(2H)-one] | 0.28
9 | COc1ccnc([C@H](C)N2CCc3c(cc(Cn4ccnc4C)cc3-c3c[nH]nc3C)C2=O)c1 [Example 238, (S)-2-(1-(4-methoxypyridin-2-yl)ethyl)-7-((2-methyl-1H-imidazol-1-yl)methyl)-5-(3-methyl-1H-pyrazol-4-yl)-3,4-dihydroisoquinolin-1(2H)-one] | < 0.05
10 | Cn1ccn(Cc2cc3c(cc2F)CCN(Cc2ccc(Cl)c(Cl)c2)C3=O)c1=N [Example 26, 2-(3,4-Dichlorobenzyl)-6-fluoro-7-((2-imino-3-methyl-2,3-dihydro-1H-imidazol-1-yl)methyl)-3,4-dihydroisoquinolin-1(2H)-one] | 22
11 | CCn1cc(-c2cc(Cn3ccn(C)c3=N)cc3c2CCN(Cc2cc(OC)ccn2)C3=O)c(C)n1 [Example 63, 5-(1-Ethyl-3-methyl-1H-pyrazol-4-yl)-7-((2-imino-3-methyl-2,3-dihydro-1H-imidazol-1-yl)methyl)-2-((4-methoxypyridin-2-yl)methyl)-3,4-dihydroisoquinolin-1(2H)-one] | < 0.05
12 | CCc1ccnc([C@H](C)N2CCc3c(cc(Cn4ccnc4C)cc3-c3cn(C)nc3C(F)(F)F)C2=O)c1 [Example 175, (S)-2-(1-(4-Ethylpyridin-2-yl)ethyl)-7-((2-methyl-1H-imidazol-1-yl)methyl)-5-(1-methyl-3-(trifluoromethyl)-1H-pyrazol-4-yl)-3,4-dihydroisoquinolin-1(2H)-one] | < 0.05
13 | COc1cc(CN2CCc3c(cc(Cn4ccnc4C)cc3-c3cn(C)nc3C(F)(F)F)C2=O)cc(OC)c1 [Example 10, 2-(3,5-Dimethoxybenzyl)-7-((2-methyl-1H-imidazol-1-yl)methyl)-5-(1-methyl-3-(trifluoromethyl)-1H-pyrazol-4-yl)-3,4-dihydroisoquinolin-1(2H)-one] | 5
14 | COc1ccnc([C@H](C)N2CCc3c(cc(Cn4ccnc4C)cc3-c3ccc(F)cc3C)C2=O)c1 [Example 168, (S)-5-(4-Fluoro-2-methylphenyl)-2-(1-(4-methoxypyridin-2-yl)ethyl)-7-((2-methyl-1H-imidazol-1-yl)methyl)-3,4-dihydroisoquinolin-1(2H)-one] | < 0.05
15 | COc1cc(CN2CCc3c(cc(Cn4ccn(C)c4=N)cc3-c3cccnc3C(F)(F)F)C2=O)cc(OC)c1 [Example 35, 2-(3,5-Dimethoxybenzyl)-7-((2-imino-3-methyl-2,3-dihydro-1H-imidazol-1-yl)methyl)-5-(2-(trifluoromethyl)pyridin-3-yl)-3,4-dihydroisoquinolin-1(2H)-one] | < 0.05
16 | CCn1cc(-c2cc(Cn3ccoc3=N)cc3c2CCN(Cc2cc(OC)ccn2)C3=O)c(C(F)(F)F)n1 [Example 89, 5-(1-Ethyl-3-(trifluoromethyl)-1H-pyrazol-4-yl)-7-((2-iminooxazol-3(2H)-yl)methyl)-2-((4-methoxypyridin-2-yl)methyl)-3,4-dihydroisoquinolin-1(2H)-one] | < 0.05

Other lines, results leading:

Row | Ki [nM] | SMILES
17 | < 0.05 | COc1ccnc(CN2CCc3c(cc(CN4CCN(C)C4=N)cc3-c3cn(C)nc3C)C2=O)c1 [Example 47, 5-(1,3-Dimethyl-1H-pyrazol-4-yl)-7-((2-imino-3-methylimidazolidin-1-yl)methyl)-2-((4-methoxypyridin-2-yl)methyl)-3,4-dihydroisoquinolin-1(2H)-one]
18 | < 0.05 | CCn1cc(-c2cc(Cn3ccnc3)cc3c2CCN([C@H](c2cc(C)ccn2)C2CC2)C3=O)c(C(F)(F)F)n1 [Example 245, (S)-7-((1H-imidazol-1-yl)methyl)-2-(cyclopropyl(4-methylpyridin-2-yl)methyl)-5-(1-ethyl-3-(trifluoromethyl)-1H-pyrazol-4-yl)-3,4-dihydroisoquinolin-1(2H)-one]
19 | 0.086 | CCn1cc(-c2cc(Cn3ccoc3=N)cc3c2CCN(Cc2cn(C)nc2C)C3=O)c(C(F)(F)F)n1 [Example 97, 2-((1,3-Dimethyl-1H-pyrazol-4-yl)methyl)-5-(1-ethyl-3-(trifluoromethyl)-1H-pyrazol-4-yl)-7-((2-iminooxazol-3(2H)-yl)methyl)-3,4-dihydroisoquinolin-1(2H)-one]
20 | < 0.05 | Cc1cc([C@H](C)N2CCc3c(cc(Cn4ccn(C)c4=N)cc3-c3ccc(F)cc3C)C2=O)ccc1F [Example 40, (S)-5-(4-Fluoro-2-methylphenyl)-2-(1-(4-fluoro-3-methylphenyl)ethyl)-7-((2-imino-3-methyl-2,3-dihydro-1H-imidazol-1-yl)methyl)-3,4-dihydroisoquinolin-1(2H)-one]
21 | 0.22 | Cc1nccn1Cc1cc2c(c(-c3cn(C)nc3C(F)(F)F)c1)CCN(Cc1ccccn1)C2=O [Example 180, 7-((2-Methyl-1H-imidazol-1-yl)methyl)-5-(1-methyl-3-(trifluoromethyl)-1H-pyrazol-4-yl)-2-(pyridin-2-ylmethyl)-3,4-dihydroisoquinolin-1(2H)-one]
22 | < 0.05 | Cc1cc(CN2CCc3c(cc(Cn4ccnc4C)cc3-c3cn(C)nc3C(F)(F)F)C2=O)cnc1C [Example 241, 2-((5,6-Dimethylpyridin-3-yl)methyl)-7-((2-methyl-1H-imidazol-1-yl)methyl)-5-(1-methyl-3-(trifluoromethyl)-1H-pyrazol-4-yl)-3,4-dihydroisoquinolin-1(2H)-one]
23 | 14 | Cc1nccn1Cc1ccc2c(c1)C(=O)N(Cc1cc(Cl)cc(Cl)c1)CC2 [Example 2, 2-(3,5-Dichlorobenzyl)-7-((2-methyl-1H-imidazol-1-yl)methyl)-3,4-dihydroisoquinolin-1(2H)-one]
24 | < 0.05 | CCn1cc(-c2cc(Cn3ccoc3=N)cc3c2CCN([C@@H](C)c2cc(OC)ccn2)C3=O)c(C(F)(F)F)n1 [Example 91, (S)-5-(1-Ethyl-3-(trifluoromethyl)-1H-pyrazol-4-yl)-7-((2-iminooxazol-3(2H)-yl)methyl)-2-(1-(4-methoxypyridin-2-yl)ethyl)-3,4-dihydroisoquinolin-1(2H)-one]
25 | < 0.05 | Cc1cc(CN2CCc3c(cc(Cn4ccn(C)c4=N)cc3-c3cccnc3C)C2=O)ccc1Cl [Example 27, 2-(4-Chloro-3-methylbenzyl)-7-((2-imino-3-methyl-2,3-dihydro-1H-imidazol-1-yl)methyl)-5-(2-methylpyridin-3-yl)-3,4-dihydroisoquinolin-1(2H)-one]
26 | 7.4 | COc1cc(CN2CCc3cc(F)c(CNC4=NCCN4)cc3C2=O)cc(OC)c1 [Example 133, 7-(((4,5-Dihydro-1H-imidazol-2-yl)amino)methyl)-2-(3,5-dimethoxybenzyl)-6-fluoro-3,4-dihydroisoquinolin-1(2H)-one]
27 | < 0.05 | COc1ccnc(CN2CCc3c(cc(Cn4ccn(C5CC5)c4=N)cc3-c3cn(C)nc3C)C2=O)c1 [Example 48]
28 | 0.2 | Cc1nccn1Cc1cc2c(c(-c3cn(C)nc3C(F)(F)F)c1)CCN(Cc1ccccc1)C2=O [Example 233, 2-Benzyl-7-((2-methyl-1H-imidazol-1-yl)methyl)-5-(1-methyl-3-(trifluoromethyl)-1H-pyrazol-4-yl)-3,4-dihydroisoquinolin-1(2H)-one]
